Reference: PubChem BioAssay AID1159614 (National Center for Advancing Translational Sciences (NCATS), 2016)
Hit rate of the full screen: of about 45,000 compounds, about 65 (0.1%) were called active. Calls follow the shape of the dose curve; as a rule, active = well fitted activation curve with a large enough effect; inconclusive = small, poorly fitted or top-dose-only effect; inactive = no such curve, though single readings can be large or run the other way. The list shows a part of the results.

Molecular target: Galactocerebrosidase (Homo sapiens) (UniProt P54803)
Experiment: A Novel Cell-Based Assay to Identify Small Molecules for B -Galactocerebrosidase; also: 0% is about no effect; nearly all actives have a fitted effect of over 65% in size
Settings: 145M-Twi-hGALC-G270D cells (Twitcher mouse brain line with human GALC G270D), HMU-beta-Gal fluorescence, 48 h; series mostly up to 57.5 µM; activation: at the top concentration
In short: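 Fluorogenic HMU-b-Gal hydrolysis (0.1 mM final, pH 5.2 citrate-phosphate with 1 mg/mL sodium taurocholate; carbonate stop buffer) measures mutant GALC activity after compound treatment of live 145M-Twi Twitcher brain cells stably carrying human GALC-G270D, with wild-type GALC line alongside; activation sought.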

UniProt P54803, sequence (P54803 whole entry, looked up): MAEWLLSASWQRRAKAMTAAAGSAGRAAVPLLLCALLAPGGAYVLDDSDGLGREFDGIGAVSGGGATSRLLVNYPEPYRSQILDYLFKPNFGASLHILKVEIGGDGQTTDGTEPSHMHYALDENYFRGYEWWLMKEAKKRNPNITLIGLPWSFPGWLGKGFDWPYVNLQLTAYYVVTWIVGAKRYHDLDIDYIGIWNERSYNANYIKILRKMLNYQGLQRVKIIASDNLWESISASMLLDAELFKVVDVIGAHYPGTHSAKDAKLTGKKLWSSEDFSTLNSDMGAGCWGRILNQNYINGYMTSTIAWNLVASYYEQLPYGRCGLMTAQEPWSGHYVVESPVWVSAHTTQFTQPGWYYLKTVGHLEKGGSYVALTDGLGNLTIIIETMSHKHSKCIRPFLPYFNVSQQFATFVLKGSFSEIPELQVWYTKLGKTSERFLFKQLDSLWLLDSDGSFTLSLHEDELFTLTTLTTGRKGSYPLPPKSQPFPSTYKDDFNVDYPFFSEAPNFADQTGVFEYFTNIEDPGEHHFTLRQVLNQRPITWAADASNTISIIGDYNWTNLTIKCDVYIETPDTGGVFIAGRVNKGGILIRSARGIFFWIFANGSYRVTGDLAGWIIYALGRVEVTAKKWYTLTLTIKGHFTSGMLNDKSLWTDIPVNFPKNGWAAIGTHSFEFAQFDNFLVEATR

activation, inactive:
COc1ccc(C2C=C(c3ccccc3)Nc3nc(NC(=O)c4ccc(C)cc4)nn32)cc1 (stereo unspecified) -8.91%
COc1ccc(Cl)cc1NC(=O)Cn1c2ncccc2c(=O)n1-c1ccc(C)c(C)c1 -18%
Cc1cc(C)cc(N(CC(=O)Nc2cccc(C)c2C)S(=O)(=O)c2c(C)[nH]c(=O)[nH]c2=O)c1 -8.78%
COc1ccc2c(CNCc3ccc(C)o3)c(C(=O)O)n(Cc3ccccc3)c2c1 3.77%
Cc1cc(NS(=O)(=O)c2ccc(NC(=O)COc3ccc(Cl)cc3)cc2)nc(C)n1 -16.4%
Cc1ccc(NC(=O)Nc2nnc(N(C)Cc3ccccc3)s2)cc1 -11.8%
COC(=O)c1ccc(Cl)cc1NC(=O)N1CC(C)Oc2ccccc21 (stereo unspecified) -15.9%
Cc1ccc(-n2nc3c(=O)n(CC(=O)Nc4ccccc4F)nc(C)c3c2C)c(C)c1 -1.95%
CCOC(=O)c1ccc(NC(=O)c2cc3cc(C)ccc3n2C)cc1 -10.7%
COC1=C(OC)C(=O)C(CCCCCCCCCCO)=C(C)C1=O -9.46%
Cc1ccc(C)c(NC(=O)CSc2nnc(CNC(=O)c3ccccc3)n2-c2ccccc2)c1 -18.5%
CCOc1ccc(NC(=O)c2ccc(CN3C(=O)C(C)=C(c4ccc(C)cc4)S3(=O)=O)cc2)cc1 -11.1%
CC(=O)Nc1ccc(NC(=O)CCc2c(C)nc3c(c(C)nn3-c3ccc(C)cc3)c2C)cc1 -11.6%
CCN(CC)S(=O)(=O)c1nnc(NC(=O)COc2ccc(C)cc2)s1 5.45%
CC(=O)Nc1ccccc1-c1nc2ccccc2n(C(C)C(=O)Nc2cc(Cl)ccc2C)c1=O (stereo unspecified) -14.5%
COc1ccc(CN2CCCN(CC(=O)Nc3cc(C)ccc3C)S2(=O)=O)cc1 -15%
CCOC(=O)c1sc(N2C(=O)c3oc4cc(C)c(C)cc4c(=O)c3C2c2ccc(C)cc2)nc1C (stereo unspecified) -6.32%
O=C(Nc1ccccc1Cl)c1ccc(F)c(S(=O)(=O)NCc2ccc(Cl)c(Cl)c2)c1 -8.9%
CCC(=O)Nc1ccccc1-c1nc2ccccc2n(Cc2cccc(Br)c2)c1=O -7.66%
CC(C)n1c(/C=C/[C@@H](O)C[C@@H](O)CC(=O)O)c(-c2ccc(F)cc2)c2ccccc21 -0.748%
Cn1c(=O)c2sccc2n2c(CCCC(=O)Nc3ccc(Cl)cc3)nnc12 -11.8%
Cc1ccc(-n2ncc3c(N4CCCCC4)ncnc32)cc1Cl -13.1%
COc1ccc(-c2cc(OC(=O)c3ccccc3C)c3c(C)oc(C)c3c(=O)c2)cc1 -10.4%
CCc1cccc(C)c1NC(=O)c1cc(S(=O)(=O)N(C)Cc2ccccc2)ccc1F -21.2%
CCOC(=O)c1c(C)oc2nc(C)nc(Nc3cc(C)cc(C)c3)c12 -12.4%
CCc1ccc2oc(C(=O)NCC(c3ccc(Cl)cc3)N3CCOCC3)c(C)c2c1 (stereo unspecified) -12.2%
